Over roughly 33,000 sequences, “E-score (-0.5 to 0.5)” has its median near -0.035; the highest 2% begin near 0.34. The list shows a part of the results.
Molecular target: T1, Mot3 (UniProt P54785)
T1 sequence: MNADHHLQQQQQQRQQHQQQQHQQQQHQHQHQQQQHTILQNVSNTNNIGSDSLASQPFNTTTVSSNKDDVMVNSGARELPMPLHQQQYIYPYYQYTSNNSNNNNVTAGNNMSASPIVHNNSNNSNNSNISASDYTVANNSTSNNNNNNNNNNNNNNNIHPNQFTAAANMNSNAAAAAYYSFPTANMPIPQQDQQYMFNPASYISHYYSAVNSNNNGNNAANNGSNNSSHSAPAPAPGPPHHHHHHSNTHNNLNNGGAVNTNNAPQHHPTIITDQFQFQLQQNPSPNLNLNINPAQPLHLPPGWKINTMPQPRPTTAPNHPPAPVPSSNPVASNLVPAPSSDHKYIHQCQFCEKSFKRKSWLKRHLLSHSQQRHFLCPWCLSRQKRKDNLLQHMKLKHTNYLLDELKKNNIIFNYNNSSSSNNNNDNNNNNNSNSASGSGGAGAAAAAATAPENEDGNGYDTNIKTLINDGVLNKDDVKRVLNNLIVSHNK
Test: PBM E-score (8-mer binding enrichment) (E-score (-0.5 to 0.5)); higher = stronger / more preferred TF binding; most listed sequences are background and not binding sites
Conditions: protein concentration: 200 nM; construct: GST-full length
Method in brief: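 GST-tagged yeast TFs (full-length or DNA-binding domain) were made by PURExpress in vitro transcription/translation and applied at about 100-200 nM to universal all-10-mer Agilent arrays. The arrays were made double-stranded by primer extension, on fresh or once-stripped slides. Bound protein was detected with fluorescent anti-GST, and scans were normalised with masliner. Each ungapped eight-base word, pooled with its reverse complement, received an E-score (modified Wilcoxon-Mann-Whitney statistic) from the Universal PBM Analysis Suite.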

Row | Sequence | PBM E-score
1 | GCAGACGA | -0.212
2 | CCGTTAGA | -0.0412
3 | CAACGTAG | 0.0756
4 | ATACGACG | -0.00564
5 | TGTGCACA | -0.00884
6 | GCTGCGAC | -0.195
7 | GCAAGTTA | 0.133
8 | CCCGTTGC | 0.0207
9 | CGCTCTTA | -0.0667
10 | CTGACCCA | -0.213
11 | GCGGCACC | -0.159
12 | CATAGTGC | 0.117
13 | GGTTTGAA | 0.0629
14 | CGCGGAGC | -0.236
15 | ATATTCCG | -0.134
16 | AAGTTAGC | -0.112
17 | CTTAAGGA | 0.0409
18 | ATGCTCTC | -0.141
19 | ACGTGGCG | 0.0823
20 | GTTCGAAC | -0.0852
21 | ATCGAAAG | -0.0284
22 | GGTGCACA | -0.0839
23 | AAACATTT | 0.228
24 | AAGACAGA | 0.149
25 | AGGTGCGG | -0.121

Row | Sequence | PBM E-score
26 | TATATAGA | 0.133
27 | CAACAGGA | 0.172
28 | AATAACAG | 0.254
29 | AGGAACCC | 0.444
30 | ACCGCACT | -0.179
31 | CCTATTTA | 0.21
32 | ACCTCGCT | -0.145
33 | AGTCGAAG | -0.0551
34 | ATACCCGC | 0.101
35 | CTACGGGA | -0.181
36 | CACATATA | 0.267
37 | TGAAGTCA | 0.0305
38 | CATTGATA | -0.0188
39 | ACAGACGT | 0.119
40 | GCCACCCC | -0.216
41 | CATGAACA | 0.129
42 | AATTCTCC | -0.136
43 | GCCTATTA | 0.334
44 | CACGACAG | 0.0178
45 | CCCTGGAC | -0.23
46 | ACCGGAAT | -0.179
47 | CAAATGAG | 0.0295
48 | GAACGGAA | -0.18
49 | GATAGAGA | -0.0576
50 | CGTTAGAC | -0.123

Row | Sequence | PBM E-score
51 | ATTCGCAC | -0.134
52 | AGGCCGCG | -0.0446
53 | CAAACTCG | -0.221
54 | AGTATGAG | -0.0106
55 | AATGGTTG | 0.0245
56 | CGGATGCC | 0.174
57 | AATATTGG | -0.0788
58 | AAAACGAA | 0.181
59 | AGCCCGTC | -0.229
60 | CGTGACCA | -0.223
61 | GCCTAGCC | -0.0436
62 | AAGAGGCG | -0.057
63 | AGAGCCAC | -0.292
64 | AAGCACTT | -0.0943
65 | CTGTAGGA | 0.134
66 | AGCATTGA | -0.145
67 | AGGGAGCA | -0.371
68 | TTCGTAAA | 0.125
69 | ACACAACT | 0.248
70 | AGCTCATA | -0.0474
71 | CGGTAACA | 0.21
72 | CCTAGATA | -0.143
73 | AATAGTCG | -0.235
74 | GCGAGCCC | -0.201
75 | GCCCGTGA | -0.15

Row | Sequence | PBM E-score
76 | CAATAGTC | -0.206
77 | AAAACGTT | 0.032
78 | ACCGGATA | 0.0428
79 | AAGGTATT | 0.16
80 | CCCATGAC | -0.167
81 | GTGCGGGA | -0.252
82 | ACGCGCCT | 0.299
83 | CAAATAAA | -0.00982
84 | AAGCGGTG | -0.0951
85 | CCTCAAGC | -0.229
86 | GGCAGGCA | 0.481
87 | GTGGACTA | -0.0845
88 | GTGATCAA | -0.0663
89 | AGTGCGCG | -0.188
90 | CCGCACGA | -0.183
91 | ATAGCACG | -0.00445
92 | ATGTTACC | 0.237
93 | CTAATGAG | -0.0831
94 | AAGTCGAT | -0.224
95 | CAGAAAAG | -0.0566
96 | AAATCTCC | -0.264
97 | CTGAATAC | 0.105
98 | TCATGCAA | 0.0365
99 | AGCGATAC | -0.117
100 | CAGATAGG | 0.069

Row | Sequence | PBM E-score
101 | CCCCCTAG | -0.371
102 | AACTGTTC | 0.00203
103 | ACGCGCAG | -0.0527
104 | GAAATCGC | -0.241
105 | CCACACTA | -0.135
106 | CCTATGTC | 0.172
107 | AGCCCCAA | -0.215
108 | GATACCCC | -0.294
109 | ACTCATCT | 0.028
110 | CTGGAGAA | -0.16
111 | CAATTCGG | 0.0113
112 | AATCCAGC | -0.198
113 | GTCCGAGA | -0.0515
114 | AAGGGGAT | 0.021
115 | ATATTCGC | 0.0219
116 | CAAAGTTG | -0.0227
117 | AAGAACAT | 0.229
118 | CACATCGA | 0.0533
119 | AACTCACT | -0.0304
120 | CATTGGCA | 0.0852
121 | AGTCTTGG | -0.0823
122 | GGCCAAAC | -0.214
123 | CGGCTAGC | -0.229
124 | TCCCCGCA | -0.125
125 | GAGGGCCC | -0.321

Row | Sequence | PBM E-score
126 | AAGCGCCT | 0.0724
127 | GCATTGGC | -0.0872
128 | TAGGCATA | 0.28
129 | CGAATTTA | 0.144
130 | ACCCCTGC | -0.197
131 | GCAATGTA | 0.249
132 | CACTTTGA | -0.208
133 | TGGTACAA | 0.0168
134 | ACTAATCC | -0.0354
135 | CGGGAGGC | -0.163
136 | ATTGGATC | -0.235
137 | CTGAGTTA | -0.0326
138 | AACCGCGG | -0.171
139 | GCCTGCCC | 0.073
140 | TATTATGA | 0.0627
141 | CCTACAAC | 0.194
142 | GCACGTCA | 0.0204
143 | ATTTGTAG | 0.0961
144 | GCCACACC | -0.193
145 | ATCACGTA | 0.226
146 | AGGGTGGG | -0.14
147 | ACGCGTGC | 0.291
148 | ACCAAAGC | -0.044
149 | AGCCAACA | 0.0235
150 | AGAGCGAT | -0.161

Row | Sequence | PBM E-score
151 | ATCTCAGG | 0.0363
152 | AGCCGGCA | -0.286
153 | ATGATTTG | -0.025
154 | CATGTTAG | 0.332
155 | TAATCCGA | -0.0977
156 | CTTAAAAG | -0.0735
157 | CGAGATAG | -0.256
158 | ACAAGATG | 0.134
159 | ATTCGCAG | 0.0372
160 | ACAAGGAG | 0.175
161 | AAGTTAGA | 0.128
162 | AACGGCTG | -0.304
163 | AAATTGGC | -0.118
164 | AAGCCACG | -0.0353
165 | AGCGCGAG | -0.184
166 | CCATACAC | -0.067
167 | ACCTGTAA | 0.275
168 | CCCAGTAA | 0.0177
169 | TCGAAGAA | -0.00988
170 | ACAGAAAT | 0.0316
171 | ACATCGAG | 0.0644
172 | TTGTAAAA | 0.321

— the supplement of paper PMC3334620
